About 45 (2%) of roughly 2,000 compounds were called active.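 Rule for the calls: active = inhibition above the mean of all tested compounds plus 3 SD (cut at about 49% in these data); inactive = the rest.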 The list shows a part of the results.
Each compound was assayed against Perilipin-5 (Homo sapiens) + 1-acylglycerol-3-phosphate O-acyltransferase ABHD5 (Homo sapiens) (UniProt Q00G26+Q8WTS1) (assay: blockers of ABHD5 binding to perilipin-5 – cell lysate, split luciferase complementation, luminescence, NIH validation set, pilot screen (AID 493035;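 note: 0% = DMSO only wells while the 100% control is not stated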)). Conditions: split G. princeps luciferase complementation, lysates, 4 h; at 7.9 µM, hits give high values.
Sequence of UniProt Q00G26 (Q00G26 whole entry, looked up): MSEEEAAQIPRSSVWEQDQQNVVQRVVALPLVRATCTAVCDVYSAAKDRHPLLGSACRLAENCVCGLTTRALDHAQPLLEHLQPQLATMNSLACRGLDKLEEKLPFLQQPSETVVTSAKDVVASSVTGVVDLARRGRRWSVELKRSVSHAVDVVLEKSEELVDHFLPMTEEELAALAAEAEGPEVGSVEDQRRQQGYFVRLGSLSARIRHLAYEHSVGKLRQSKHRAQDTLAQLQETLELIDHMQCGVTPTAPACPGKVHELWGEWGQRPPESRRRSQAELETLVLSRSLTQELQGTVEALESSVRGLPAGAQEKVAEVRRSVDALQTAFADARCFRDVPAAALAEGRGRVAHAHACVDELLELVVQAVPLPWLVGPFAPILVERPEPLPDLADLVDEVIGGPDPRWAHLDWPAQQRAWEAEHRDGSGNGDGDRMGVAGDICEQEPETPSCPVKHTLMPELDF
Sequence of UniProt Q00G26 (Q8WTS1 whole entry, looked up): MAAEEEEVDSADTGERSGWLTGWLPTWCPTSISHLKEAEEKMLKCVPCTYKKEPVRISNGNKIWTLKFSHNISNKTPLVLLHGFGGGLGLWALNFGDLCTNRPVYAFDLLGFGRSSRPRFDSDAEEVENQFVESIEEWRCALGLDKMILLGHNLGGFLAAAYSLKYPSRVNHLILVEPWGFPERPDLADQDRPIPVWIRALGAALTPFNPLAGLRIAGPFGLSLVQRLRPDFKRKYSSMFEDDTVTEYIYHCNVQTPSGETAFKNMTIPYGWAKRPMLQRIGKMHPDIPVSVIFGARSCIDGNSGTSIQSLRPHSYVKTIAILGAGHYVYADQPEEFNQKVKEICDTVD

| SMILES | inhibition |
| --- | --- |
| O=C1CCc2cc(OCCCCc3nnnn3C3CCCCC3)ccc2N1 | inactive: 2.52% |
| C(=C\c1ccc2ccccc2n1)/c1ccccc1 | inactive: 3.52% |
| c1cc(-c2ccncc2)ccn1 | inactive: -3.86% |
| Cc1csc(CCc2nc(C)cs2)n1 | inactive: -0.75% |
| O=C(Oc1ccc2c3c(c(=O)oc2c1)CCCC3)c1ccco1 | inactive: -2.62% |
| COc1ccc(-c2c(C)c3ccc(OCC(C)=O)cc3oc2=O)cc1 | inactive: 1.83% |
| CN1CC2CCCC3(C1)C(=O)NC1(CCCCC1)N=C23 (stereo not drawn) | inactive: -2.89% |
| COc1ccc(-c2cc(C(=O)N3CCOCC3)c3cc(C)ccc3n2)cc1 | inactive: -3.27% |
| O=C(/C=C/c1ccc2c(c1)OCO2)NCc1ccc(F)cc1 | inactive: 1.71% |
| Cc1ccc2c(c1)C(C)(C)[C@]1(C)NC(=O)CCN21 | inactive: 5.4% |
| CC(=O)OC1c2c(ccc3ccc(=O)oc23)OC(C)(C)C1OC(=O)CC(C)C (stereo not drawn) | inactive: 2.15% |
| CCOC(=O)c1c(C)oc2c1C(=O)c1ccccc1C2=O | inactive: -2.56% |
| O=C(CN1CC[n+]2c(-c3cccs3)csc21)c1ccc(Br)cc1 | active: 51.8% |
| Cc1ccc(C(CC(=O)NCc2ccco2)c2ccc(OC(C)C)cc2)cc1 (stereo not drawn) | inactive: 34.6% |
| Cc1ccccc1NC(=O)C1c2ccccc2Oc2ccccc21 | inactive: -10.3% |
| Cc1cccc(CN2CCN(C(c3ccccc3)c3ccc(Cl)cc3)CC2)c1 (stereo not drawn) | inactive: -3.56% |
| COC1CCCCC1Nc1ccc(C)c(C)c1 (stereo not drawn) | inactive: 2.37% |
| COCCn1c(/C=C/c2ccccc2)nc2ccccc21 | inactive: 5.06% |
| CC1CNCCN1S(=O)(=O)c1cccc2cnccc12 (stereo not drawn) | inactive: 5.22% |
| CCOC(=O)C1=C[C@]2(CC)CCCN3CCc4c(n1c1ccccc41)[C@@H]32 | inactive: -7.61% |
| CC(NC(=O)c1ccc(OC2CCN(Cc3ccccn3)CC2)cc1)c1ccccc1 (stereo not drawn) | inactive: -13.7% |
| COc1ccc(C)cc1S(=O)(=O)Nc1ccc(F)cc1 | inactive: 0.68% |
| O=C(OCCN1CCCC1)C1(c2ccccc2)CCCC1 | inactive: -13.1% |
| COC(=O)c1ccc(NC(=O)C23CCC(C)(C(=O)O2)C3(C)C)cc1 (stereo not drawn) | inactive: -0.21% |
| CC(C)=CCCC(C)CN1CCC(N2CCC(C(=O)N3CCCC3)CC2)CC1 (stereo not drawn) | inactive: -12.9% |
| C[C@]12CC[C@@H]3c4ccc(O)cc4CC[C@H]3[C@@H]1CCC2=O | inactive: -0.89% |
| OC(C#CCN1CCCC1)(c1ccccc1)c1cccnc1 (stereo not drawn) | inactive: 8.65% |
| CN=C1c2cc3cc(OC)ccc3n2CCN1C | inactive: -0.31% |
